SMILES strings stand for the structures. Values joined by “and” are separate entries in the source; they are usually repeats but may differ in a detail not shown here. Equal entries are not always repeated. Out of some 110,000 compounds screened, about 230 (0.21%) showed an effect of 50% or more. The list shows a part of the results.
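Note: 30 min substrate incubation versus DMSO and 10 µM JCP410 controls.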

DPAP1, sequence (Q8IIJ9 whole entry, looked up): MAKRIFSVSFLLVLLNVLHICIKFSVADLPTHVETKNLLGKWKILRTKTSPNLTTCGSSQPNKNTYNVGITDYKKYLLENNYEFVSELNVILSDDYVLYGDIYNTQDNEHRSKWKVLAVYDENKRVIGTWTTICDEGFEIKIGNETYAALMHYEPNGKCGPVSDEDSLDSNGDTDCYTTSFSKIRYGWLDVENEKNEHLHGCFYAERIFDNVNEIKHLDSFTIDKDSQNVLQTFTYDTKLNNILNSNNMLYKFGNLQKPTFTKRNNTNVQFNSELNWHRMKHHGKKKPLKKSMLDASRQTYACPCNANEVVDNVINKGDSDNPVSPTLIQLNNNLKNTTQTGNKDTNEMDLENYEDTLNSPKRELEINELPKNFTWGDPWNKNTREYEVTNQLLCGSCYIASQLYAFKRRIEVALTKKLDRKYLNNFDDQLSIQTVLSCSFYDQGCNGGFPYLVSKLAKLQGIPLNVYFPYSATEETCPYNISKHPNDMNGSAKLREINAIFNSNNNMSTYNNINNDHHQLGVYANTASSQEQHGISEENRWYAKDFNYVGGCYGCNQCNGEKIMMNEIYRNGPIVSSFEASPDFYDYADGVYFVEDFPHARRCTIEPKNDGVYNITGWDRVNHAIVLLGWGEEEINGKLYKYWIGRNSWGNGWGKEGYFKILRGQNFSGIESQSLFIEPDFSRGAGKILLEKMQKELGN

The experiment concerns the target DPAP1 (Plasmodium falciparum, UniProt Q8IIJ9). As to the kind of experiment: primary screen, percent inhibition; read by cleavage of a fluorogenic dipeptide substrate; higher = more effect of the substance. Further details: species or system P. falciparum D10 trophozoite lysates; single well.
Turning to `CCN1C(=O)NC(c2ccccc2C(F)(F)F)C(C(=O)OC)=C1C` (stereo not shown), the “% Inhibition @ 10 uM” value stood at 4.32%. As for `CCOC(=O)c1nc2ccccc2nc1C`, the figure is 4.21%. `O=C(CSc1nc2cccnc2[nH]1)NCCc1nc2ccccc2[nH]1`: the “% Inhibition @ 10 uM” value is listed as 4.79%. The result for `O=C(Nc1ccc(NC(=O)c2ccco2)c(Cl)c1)c1ccco1` reads 4.33%; that for `CC(=O)N1CCC(N(Cc2ccco2)C(=O)NC2CCCC2)CC1`, 5.62%.

For `Cc1ccc(CNC(=O)c2cc3c(s2)CN(Cc2ccccc2)C3)cc1`, the “% Inhibition @ 10 uM” value is given as -5.8%. As for `Cc1cc(-c2ccccc2)nn1-c1nc2ccccc2s1`, the figure is 9.1%.

As for `Nc1nc2c3ccccc3nc(Cc3ccccc3)n2n1`, the “% Inhibition @ 10 uM” value worked out at 1.63%. The result for `O=C(NC1CC1)C1CCN(C(=O)c2ccc(Br)cc2)CC1` reads -0.999%. On to `CCc1cc2c(C)cc(=O)oc2cc1O`, for which the “% Inhibition @ 10 uM” value is reported as -0.597%.

Regarding `CCOc1ccccc1N1CCN(Cc2ccc3ccccc3c2)CC1`, the “% Inhibition @ 10 uM” value was 3.16%. The result for `Cc1ccc2nc(O)c(CN(C(C)C)S(=O)(=O)c3ccccc3)cc2c1` reads -2.4%; that for `COC(=O)c1ccc(Cn2c(S(=O)(=O)Cc3ccccc3)nc3ccccc32)cc1`, -0.0108%. The result for `NS(=O)(=O)c1ccc(CCNC(=O)CCCn2ncn3c(cc4occc43)c2=O)cc1` reads 4.55%; that for `Cc1ccc(OCc2nc(C#N)c(NCCCN(C)C)o2)cc1`, 0.778%; that for `CCc1ccc(-c2cc3c(=O)n(CC(=O)NCCOC)nc(C)n3n2)cc1`, 0.623%. On to `Cc1cc(C(=O)NCC2CCCO2)c2c(C)nn(-c3ccccc3)c2n1` (stereo not shown), for which the “% Inhibition @ 10 uM” value was 3.75%. As for `CCOc1ccc(N2C(=O)C3C(C(C)=O)=NN(c4ccccc4Cl)C3C2=O)cc1` (stereo not shown), the figure is -0.0619%; as for `Cc1cc(C)cc(NC(=O)c2cc3c(=O)n4cccc(C)c4nc3n2C)c1`, 0.331%; as for `Cc1cc(O)nc(SCCc2ccccc2)n1`, -5.69%.

For `O=C1Nc2c(Cl)cc(Cl)cc2C1=O`, the “% Inhibition @ 10 uM” value was 2.51%. The result for `Nc1c(-c2nc(-c3ccncc3)no2)nnn1-c1ccc(F)cc1` reads 1.66%; that for `Cn1ccc(CNC(=O)COc2ccc(Br)cc2)n1`, -0.759% and 0.214%; that for `Cc1ccccc1S(=O)(=O)Cc1ccc(C(=O)N2CCOCC2)o1`, -6.89%. The result for `O=C(CN1C(=O)S/C(=C/c2ccc(O)cc2)C1=O)Nc1ccccc1` reads 1.15%. Regarding `Cc1cc(Cl)cc2c1NC(c1ccc(Br)cc1)=NN=C2c1ccccc1`, the “% Inhibition @ 10 uM” value amounted to 6.5%. The result for `CCN(CC)CCCNC(=S)N1CCN(c2ccc3nnc(-c4ccc(F)cc4)n3n2)CC1` reads -1.37%; that for `COc1cc(C=C2C(=O)N(C)C(=O)N(C)C2=O)ccc1OCC(=O)O`, 0.343%; that for `CC1=CC2=NC(=O)/C(=C\c3ccc(-c4ccccc4Cl)o3)C(=N)N2O1`, -1.65%. With `O=C(NCc1ccccc1Cl)c1c(-n2cccc2)sc2c1CCC2`, the “% Inhibition @ 10 uM” value was -3.47%. The result for `N#Cc1cc2c(nc1SCC(=O)c1ccc(Cl)cc1)C1CCN2CC1` reads 0.895%; that for `Nc1ncc2c(n1)CC(c1ccco1)CC2=O` (stereo not shown), 4.55%; that for `COc1ccc(C(C2=C(O)CC(C)(C)CC2=O)c2c(C)[nH]c3ccccc23)cc1` (stereo not shown), 0.275%. The result for `O=C(COc1ccc([N+](=O)[O-])cc1)OCCOc1ccc([N+](=O)[O-])cc1` reads -0.0267%; that for `CC(C)(C)c1nc2scc(-c3ccccc3)c2c(=O)o1`, 5.16%; that for `O=C(CCn1ccc2cc(S(=O)(=O)N3CCCC3)ccc21)NCc1ccc(Cl)cc1`, 2.82%.

As to `COc1ccc(O)c(C2=NN3C(C2)c2cc(Br)ccc2OC3(C)C)c1` (stereo not shown), the “% Inhibition @ 10 uM” value worked out at 4.97%.

In the case of `Cc1ccc2c(cnn2C(=O)CCCC(=O)NCC2CCCO2)c1` (stereo not shown), the “% Inhibition @ 10 uM” value is 0.386%.

Take `CCCCNC(=O)C1CCCN(S(=O)(=O)N2CCCCCC2)C1` (stereo not shown): the “% Inhibition @ 10 uM” value is listed as 1.16%. As for `CS(=O)(=O)N(CC(=O)N1CCN(Cc2ccccc2)CC1)c1cc(Cl)cc(Cl)c1`, the figure is -3.77%. As for `COc1ccc(/C=C(/NC(=O)c2ccccc2)c2nc3ccccc3[nH]2)cc1OC`, the figure is 7.09%; as for `CCCN1CCC(NC(C)c2ccc(F)cc2)CC1` (stereo not shown), -4.75%; as for `CC1=CCC2C(=O)N(c3ccc4ccccc4n3)C(=O)C2C1` (stereo not shown), 5.23%. With `Cc1nn(-c2ccc(F)cc2)c(-n2cccc2)c1C(=O)NC(C)(C)C`, the “% Inhibition @ 10 uM” value is listed as -0.571%. As for `CCOC(=O)c1c(Nc2ccc(Cl)cc2)cc(C)nc1C`, the figure is -10.2%; as for `COc1ccc(S(=O)(=O)N2CCN(c3ccc(F)cc3)CC2)cc1OC`, -10.6%. As for `COc1cc(CN2CCN(c3ccccc3C)CC2)cc(OC)c1`, the figure is 1.9%; as for `Cc1ccc(OCC(=O)N(Cc2nc(-c3ccccc3)no2)C(C)C)cc1C`, 1.62%; as for `Cc1nc2nc(N3C(=O)c4ccccc4C3=O)nn2c(C)c1Cl`, -3.08%.

Turning to `N#CC1=C(N)Oc2[nH]nc(C34CC5CC(CC(C5)C3)C4)c2C1c1ccco1` (stereo not shown), the “% Inhibition @ 10 uM” value was -6.37%. The result for `COc1ccc2nc(N3CCSCC3)cc(C)c2c1` reads -1.85%. The result for `Cn1c2c(c(=O)n(C)c1=O)CN(CCN1CCc3ccccc3C1)CN2` reads -2.88%. As for `Cn1cccc1-c1nc2cc(NS(=O)(=O)c3ccccc3)ccc2[nH]1`, the figure is -1.38% and 1.88%. `CCOC(=O)c1c(C=O)c(C)n(Cc2ccccc2F)c1C`: the “% Inhibition @ 10 uM” value is -1.75%. As for `CC(C)CSc1nc(O)cc(O)n1`, the figure is -1.42%; as for `O=C(CCN1C(=O)/C(=C\c2ccc(F)cc2)SC1=S)Nc1ccccc1`, -1.97%; as for `COc1cc(CC(C)N2CCCCCC2)ccc1O` (stereo not shown), -5.31%. The result for `COC(=O)c1ccc2oc(=O)c(C(N)=O)cc2c1` reads -4.58%.

Regarding `COc1ccc(C(=O)Nc2c(Cl)cc(Cl)cc2C(=O)NCc2ccco2)cc1`, the “% Inhibition @ 10 uM” value was -11.7%. As for `CCN1CCC(N2CCN(c3ccccc3Cl)CC2)CC1`, the figure is 1.57%; as for `COc1ccc(OC)c(NC(=O)C2=C(C)NC(=O)NC2c2cccs2)c1` (stereo not shown), -17%. As for `CC1CN(c2nc3c(c(=O)n(C)c(=O)n3C)n2Cc2cccc(F)c2)CC(C)O1` (stereo not shown), the figure is 1.9%; as for `CC(C)CCNC(=O)CCNC(=O)Cn1ccc2ccccc2c1=O`, -5%. For the compound `CCC1SC2=NC(C)=C(C(=O)OCc3ccccc3)C(c3ccc(OC)cc3)N2C1=O` (stereo not shown), the “% Inhibition @ 10 uM” value is recorded as 0.561%. As for `CCCCOCC(O)CN1CCN(C(C)=O)CC1` (stereo not shown), the figure is -3.18%. The result for `CCCc1[nH]nc2c1C(c1cccc(OC)c1)C(C#N)=C(N)O2` (stereo not shown) reads 2.76%. As for `CC(C)(C)NC(=O)c1cccs1`, the figure is -5.64%; as for `Oc1ccc(Br)cc1CN1CCN(Cc2ccccc2F)CC1`, -7.23%; as for `CCOc1ccccc1N1CCN(Cc2cccc(Br)c2)CC1`, 1.55%. With `Cc1ccc(C2CC(c3ccccc3)n3nnnc3N2)cc1` (stereo not shown), the “% Inhibition @ 10 uM” value came to 0.131%. The result for `O=C(Nc1ccncc1)c1ccc2c(c1)C(=O)N(CC1CCCO1)C2=O` (stereo not shown) reads 3.49%. Consider `CC1(C)Cc2c(sc3[nH]c(=S)[nH]c(=S)c23)CO1`, for which the “% Inhibition @ 10 uM” value was determined as 15%.

As for `CC(C)CCNC(=O)C(=O)NCC(C)O` (stereo not shown), the “% Inhibition @ 10 uM” value was -0.0494%. As for `O=C(/C=C/c1cn(CC(O)CN2CCCCC2)c2ccccc12)c1cccs1` (stereo not shown), the figure is -5.36%; as for `c1ccc2[nH]c(-c3ccncc3)nc2c1`, -3.55%; as for `COc1ccc(S(=O)(=O)N(CC(=O)N2CCC(C)CC2)c2cc(Cl)ccc2OC)cc1OC`, -5.26%. The result for `Cc1[nH]c2c(C)cccc2c1CCN` reads -3.38%.

On to `O=C(CN1CCOCC1)N1N=C(c2ccc(Br)cc2)CC1c1nc2ccccc2[nH]1` (stereo not shown), for which the “% Inhibition @ 10 uM” value was determined as 1.24%.

Turning to `CCOC(=O)C1=C(C)N=c2s/c(=C\c3c(OCC)ccc4ccccc34)c(=O)n2C1c1ccccc1` (stereo not shown), the “% Inhibition @ 10 uM” value was -1.66%.

For `Brc1cnc2nc(-c3ccco3)c(-c3ccco3)nc2c1`, the “% Inhibition @ 10 uM” value is reported as -0.833%. As for `CC1CCN(C(=O)CCCN2C(=O)C(c3ccccc3)Oc3cccnc32)CC1` (stereo not shown), the figure is -2.97%; as for `Cc1cccc(NC(=O)c2onc3c2CCCC3)n1`, -2.29%. As for `COCc1cc(O)nc(SCC(=O)Nc2ccccc2)n1`, the figure is -4.48%; as for `Nc1ccc(S(=O)(=O)N2CCc3ccccc32)cc1`, 4.98%.

Regarding `COc1cccc(C(C)NC(=O)c2cc(C)on2)c1` (stereo not shown), the “% Inhibition @ 10 uM” value is reported as -2.65%.

For the compound `CNc1nc2c(C)cccn2c(=O)c1/C=N/Cc1ccccc1`, the “% Inhibition @ 10 uM” value is on record as -3.98%. The result for `CCC(C)NC(=O)Cn1ncn2c(cc3sccc32)c1=O` (stereo not shown) reads -1.58%; that for `CCC(Cc1ccccc1)NC(=O)c1ccc(OC)c(OC)c1` (stereo not shown), -0.128%; that for `O=C(NCCN1CCOCC1)C(c1ccccc1)N1Cc2ccccc2C1=O` (stereo not shown), -5.29%. As for `CCSc1nnc(NC(=O)CCNS(=O)(=O)c2cc(Br)cnc2N)s1`, the figure is -1.91%; as for `CCCCNC(=O)Nc1ccccc1C(=O)Nc1ccc(Cl)cc1`, -0.116%. The result for `COc1cc(C(=O)N2CCN(C(=O)c3cc(OC)c(OC)c(OC)c3)C(C)C2)cc(OC)c1OC` (stereo not shown) reads -1.4%; that for `COc1ccc(OC)c(-c2cc(C(=O)Nc3cccnc3)c3ccccc3n2)c1`, -6.74%; that for `CC(=O)Nc1ccc(Nc2nc(-c3ccccc3)cs2)cc1`, 2.62%. For the compound `O=C(O)c1ccccc1CSc1ccccn1`, the “% Inhibition @ 10 uM” value was -5.96%. As for `COCCNC(=S)N(CCc1c(C)[nH]c2ccc(C)cc12)Cc1cccnc1`, the figure is -2.01%; as for `Cc1oc2ncnc(NC3CCCC(C)C3C)c2c1C(=O)O` (stereo not shown), -2.19%; as for `Cc1ccc(S(=O)(=O)c2cnc3ccc(Cl)cc3c2N2CCCC2)cc1`, -1.85%. With `O=C(CNS(=O)(=O)c1ccc(Br)cc1)NCC1CCCO1` (stereo not shown), the “% Inhibition @ 10 uM” value is -4.56%.

Regarding `Cc1ccc(NC(=O)CC2Sc3ccc(C(F)(F)F)cc3NC2=O)c(Br)c1` (stereo not shown), the “% Inhibition @ 10 uM” value worked out at 2.06%. The result for `N#Cc1ccc(NC(=O)c2ccccc2C(=O)O)cc1` reads 1.08%; that for `O=C(Nc1ccc(NC(=O)c2ccco2)cc1)c1ccco1`, -1.8%. For the compound `N#Cc1c(NC(=O)C(F)(F)F)oc(-c2ccccc2)c1-c1ccccc1`, the “% Inhibition @ 10 uM” value was 4.55%.

The values above are taken from publication PMC6919601, “Identification of Plasmodium dipeptidyl aminopeptidase allosteric inhibitors by high throughput screening” (PLoS ONE, 2019).
